Test results reported in the supplement of paper PMC3334620.
Whole data set: some 33,000 sequences, median “E-score (-0.5 to 0.5)” near -0.056, cut for the highest 2% near 0.38. The list shows a part of the results.

target: Stb4 (UniProt P50104); test: PBM E-score (8-mer binding enrichment) (E-score (-0.5 to 0.5)); higher = stronger / more preferred TF binding; most listed sequences are background and not binding sites; details: protein concentration: 200 nM; construct: GST-DNA-binding domain
Method in brief: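 Universal all-10-mer Agilent arrays, double-stranded by primer extension on fresh or once-stripped slides, were probed with about 100-200 nM GST-tagged yeast transcription factors made by PURExpress. Fluorescent anti-GST detected bound protein, and masliner normalised the scans. E-scores from the Universal PBM Analysis Suite were given to each ungapped eight-base word pooled with its reverse complement.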

Sequence | PBM E-score
TGACCTCA | -0.209
CAATGCTG | -0.155
GGAGTACA | 0.00514
CTTGGCAA | -0.355
GCCGTCAA | -0.0394
CCTGATCC | 0.115
CGAGCTTA | 0.172
AAGCTTGT | -0.13
CTTCTGCC | -0.0379
GTTTGGCA | -0.0952
AAGGTTTG | -0.107
AGCGACAA | -0.15
TATGGCAA | -0.0782
CTGGAGCA | -0.262
GACGGCTC | 0.155
CCTATCTC | -0.0457
AAATACCC | 0.272
CTACGTAA | -0.00563
ATGCCTGC | -0.0821
CATACAGA | -0.0776
ATGGAGGC | -0.205
AAGTTCGA | 0.0503
CTGTACGC | -0.106
GCCGAAAA | 0.438

Sequence | PBM E-score
AGTCAACT | -0.19
CTAGTGCA | -0.159
CAATCGGC | 0.21
ACAAATTC | 0.0587
GCCAAACA | -0.0024
TGTGCCAA | -0.0346
CCTGACAG | -0.17
GCCGCACC | 0.122
CCAAGCTC | -0.068
CACAATAA | -0.255
CAGTATTC | 0.0209
GCAAAGCA | -0.0523
GCTCGGCC | 0.289
ACAGTACT | -0.225
CTCCCGTC | 0.151
AGGGCTCA | -0.326
AATCGGGA | 0.342
CTATCGAC | -0.0993
CATTTTAG | 0.177
CGCTCCAC | -0.0941
ACAGCCTC | -0.146
TCTTTACA | -0.128
ATGGCATG | -0.0513
AGCTAAAA | -0.0535

Sequence | PBM E-score
TAGAGCAA | -0.356
ATTCGAAG | -0.187
AAGGCTGT | -0.0862
AGGGCCTC | -0.156
CGCGGTAA | 0.188
GGTCGAAA | -0.161
GACCCTAC | 0.0842
GGTACTCA | 0.0578
ATAGCGAT | -0.217
CTGCCGTA | -0.0101
GCACCATA | -0.021
CTTTTGTC | 0.00367
TATCACAA | -0.144
CCCTTCAC | -0.306
GGTTCGTA | 0.0851
ATGTCGTA | -0.29
AGAACCTG | -0.168
GATTAAAC | -0.0253
CGTGTCCA | -0.21
TAACGATA | -0.0839
AGGGACTC | -0.122
AGGGCGGA | 0.225
ACCAAGTG | -0.251
GTCGGCGA | 0.126

Sequence | PBM E-score
TGATCGAA | -0.125
CAGCTCAG | -0.244
AATGGTGT | -0.107
CCTGTCCC | 0.0307
ATATTTCC | 0.332
TATGCCGA | 0.411
ACAGTGGC | -0.171
GGGCTGGA | -0.0498
CGTTCAAG | 0.0705
GCAGAGGA | -0.175
TCCCATAA | -0.109
AACACAGT | -0.0685
CAGTAACG | -0.07
TACCTCGA | -0.226
ATTTACCA | -0.0178
ACAGTTGC | 0.0539
CCGCTTCC | 0.299
CCACTTAA | -0.0908
AGGTGCTC | -0.148
AAGAGATC | -0.0109
CATCTACG | 0.037
AAACTCGC | -0.0551
